# Reference: the supplement of paper PMC9446081
# Hit rate of the full screen: of about 39,000 compounds, about 220 (0.56%) showed activity. Some of the results follow.
# System: Escherichia coli K-12 BW25113
# Experiment: relative growth (OD600 normalised to plate interquartile mean) (fraction); higher = less growth inhibition, active = 0.2 or less
# Details: 50 µM; LB; incubation time: overnight (16-24 h)
# 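Note: static incubation at 37 °C against the wild-type strain, values averaged over two biological replicates.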
row,SMILES,relative growth
1,C[C@H](CO)N1C[C@H](C)[C@@H](CN(C)C(=O)CN(C)C)Oc2cc(C#C[C@@H](C)O)ccc2S1(=O)=O,inactive: 1.01
2,C[C@@H]1CN([C@@H](C)CO)C(=O)c2cccc(NC(=O)Nc3ccc(C(F)(F)F)cc3)c2O[C@@H]1CN(C)S(=O)(=O)c1ccc(F)cc1,inactive: 0.984
3,C[C@H]1CCCCO[C@@H](CN(C)C(=O)CCC(F)(F)F)[C@@H](C)CN([C@@H](C)CO)C(=O)c2cc(NS(=O)(=O)c3ccccc3)ccc2O1,inactive: 0.989
4,C[C@H](CO)N1C[C@H](C)[C@H](CN(C)C(=O)c2cc(Cl)cc(Cl)c2)OCc2ccccc2-c2ccccc2C1=O,inactive: 0.98
5,C[C@@H]1CN([C@@H](C)CO)C(=O)Cc2cc(NC(=O)NC3CCCCC3)ccc2O[C@H]1CN(C)C(=O)Nc1ccc(C(F)(F)F)cc1,inactive: 0.971
6,COc1ccc(S(=O)(=O)N(C)C[C@@H]2Oc3ccc(NS(=O)(=O)c4ccccc4)cc3C(=O)N([C@@H](C)CO)C[C@@H]2C)cc1,inactive: 1.01
7,C[C@@H]1CN([C@H](C)CO)C(=O)c2cc(NS(=O)(=O)c3ccc(Cl)cc3)ccc2O[C@@H](C)CCCCO[C@@H]1CN(C)C(=O)CCC(F)(F)F,inactive: 0.993
8,C[C@H](CO)N1C[C@H](C)[C@@H](CN(C)C(=O)Nc2ccccc2F)Oc2ncc(Br)cc2C1=O,inactive: 1.03
9,C[C@H](CO)N1C[C@H](C)[C@@H](CN(C)C(=O)CN2CCOCC2)Oc2ncc(C#CCN(C)C)cc2C1=O,inactive: 1.02
10,C[C@H](CO)N1C[C@H](C)[C@@H](CN(C)Cc2ccc(C(=O)Nc3ccccc3N)cc2)Oc2ccc(NC(=O)Nc3ccc4c(c3)OCO4)cc2CC1=O,inactive: 0.994
11,C[C@H](CO)N1C[C@H](C)[C@@H](CN(C)C(=O)Nc2cccc3ccccc23)OCCCC[C@H](C)Oc2ccc(NC(=O)Cc3ccccc3)cc2C1=O,inactive: 1.04
12,C[C@H]1CN([C@@H](C)CO)C(=O)Cc2cc(NC(=O)Nc3cccc4ccccc34)ccc2O[C@@H]1CN(C)S(=O)(=O)c1ccc(F)cc1,inactive: 1.02
13,C[C@@H]1CN([C@H](C)CO)C(=O)Cc2cc(NC(=O)Cc3cn(C)c4ccccc34)ccc2O[C@H]1CN(C)Cc1ccc(C(=O)Nc2ccccc2N)cc1,inactive: 1.02
14,C[C@@H]1CN([C@@H](C)CO)C(=O)c2cccc(NS(=O)(=O)c3cn(C)cn3)c2O[C@@H]1CN(C)C(=O)Nc1ccc(F)cc1,inactive: 0.996
15,CCCCN[C@H]1CCS(=O)(=O)C1,inactive: 0.994
16,C=CCCC(=O)N(C)[C@H](C)[C@@H](OC(=O)[C@@H]1[C@@H]2C=C[C@]3(O2)[C@H](CN(CC=C)Cc2ccccc2)N(C(C)(C)C)C(=O)[C@@H]13)c1ccccc1,inactive: 1.01
17,O=c1n(C[C@H]2CO2)c(=O)n(C[C@H]2CO2)c(=O)n1C[C@H]1CO1,inactive: 1.01
18,C[C@H]1CN([C@@H](C)CO)S(=O)(=O)c2ccc(C#Cc3cccc(F)c3)cc2O[C@@H]1CN(C)S(=O)(=O)c1ccccc1F,inactive: 0.976
19,Cc1noc(C)c1NC(=O)Nc1cccc2c1O[C@@H](CN(C)S(C)(=O)=O)[C@@H](C)CN([C@@H](C)CO)C2=O,inactive: 0.998
20,COc1ccc(CN(C)C[C@@H]2Oc3ccc(NC(=O)CCN4CCOCC4)cc3CC(=O)N([C@@H](C)CO)C[C@@H]2C)cc1,inactive: 0.975

row,SMILES,relative growth
1,COC1=CC(=O)CC(C)C12Oc1c(Cl)c(OC)cc(OC)c1C2=O (stereo not drawn),inactive: 1.08
2,COc1ccc(NC(=O)Nc2ccc3c(c2)C(=O)N([C@@H](C)CO)C[C@@H](C)[C@@H](CN(C)S(=O)(=O)c2ccc(F)cc2)OCCCC[C@H](C)O3)cc1,inactive: 1.02
3,CC(C)NC(=O)Nc1ccc2c(c1)CC(=O)N([C@@H](C)CO)C[C@@H](C)[C@H](CN(C)S(=O)(=O)c1ccc(F)cc1)O2,inactive: 1
4,C[C@@H]1CN([C@H](C)CO)C(=O)c2cc(NS(=O)(=O)c3cccs3)ccc2O[C@@H]1CN(C)Cc1ccc(Oc2ccccc2)cc1,inactive: 0.944
5,C[C@H](O)C#Cc1ccc2c(c1)O[C@H](CN(C)C(=O)c1ccccc1)[C@H](C)CN([C@@H](C)CO)S2(=O)=O,inactive: 1.01
6,COc1ccc(S(=O)(=O)N(C)C[C@@H]2Oc3c(NC(=O)c4ccncc4)cccc3C(=O)N([C@@H](C)CO)C[C@@H]2C)cc1,inactive: 0.995
7,O=C(C[C@@H]1C=C[C@@H](NC(=O)Cc2ccccn2)[C@H](CO)O1)NCCc1ccncc1,inactive: 0.999
8,COCC(=O)Nc1ccc2c(c1)C(=O)N(C)[C@@H]1CC[C@@H](CC(=O)N3CCc4ccccc4C3)O[C@H]1CO2,inactive: 0.998
9,C[C@@H]1CN([C@H](C)CO)C(=O)c2cc(NC(=O)C3CCCCC3)ccc2O[C@@H](C)CCCCO[C@@H]1CN(C)S(=O)(=O)c1ccc(Cl)cc1,inactive: 0.996
10,C[C@H]1CN([C@@H](C)CO)C(=O)Cc2cc(NC(=O)CCC(F)(F)F)ccc2O[C@@H]1CN(C)S(C)(=O)=O,inactive: 0.996
11,Nc1ccc(OCC(=O)N2CCOCC2)cc1,inactive: 1.03
12,C[C@H](CO)N1C[C@H](C)[C@H](CN(C)S(=O)(=O)c2ccc(Cl)cc2)Oc2ccc(NS(C)(=O)=O)cc2C1=O,inactive: 1.01
13,C[C@@H]1CCCCO[C@@H](CN(C)S(=O)(=O)c2cccs2)[C@@H](C)CN([C@H](C)CO)C(=O)c2cc(NC(=O)NC3CCCCC3)ccc2O1,inactive: 1.01
14,COCCOC(=O)N1C(=O)[C@@]2(c3cc(C#CCNC(N)=O)ccc31)[C@H](C(=O)N1CCc3cc(OC)c(OC)cc3C1)[C@H]1C(=O)O[C@H](c3ccccc3)[C@H](c3ccccc3)N1[C@@H]2c1ccccc1OCCO,inactive: 1.04
15,C[C@H]1CN([C@@H](C)CO)C(=O)c2cccc(NS(=O)(=O)c3ccc(Cl)cc3)c2O[C@@H]1CN(C)C(=O)Nc1ccc(C(F)(F)F)cc1,inactive: 0.866
16,COc1ccc2c3c([nH]c2c1)[C@@H](CO)N(C[C@]13CCN(CC1)CC1CCCCC1)C(=O)Nc1cccc(c1)F,inactive: 0.999
17,CN1C(=O)c2cc(NC(=O)Nc3ccccc3F)ccc2OC[C@H]2O[C@@H](CC(=O)NCc3ccc(-c4ccccc4)cc3)CC[C@H]21,inactive: 1.01
18,Cc1ccc(S(=O)(=O)N(C)C[C@@H]2Oc3ccc(NS(=O)(=O)c4c(C)noc4C)cc3CC(=O)N([C@@H](C)CO)C[C@H]2C)cc1,inactive: 1.02
19,O=C(C[C@H]1C[C@H]2c3cc(NS(=O)(=O)c4ccc(F)cc4)ccc3O[C@H]2[C@H](CO)O1)NCCN1CCCCC1,inactive: 1
20,C[C@@H]1CCCCO[C@H](CN(C)Cc2ccccc2)[C@H](C)CN([C@H](C)CO)C(=O)c2cc(NC(=O)CCC(F)(F)F)ccc2O1,inactive: 0.985

row,SMILES,relative growth
1,N[C@@H]1CC[C@@H](c2ccc(Cl)c(Cl)c2)c2ccccc21,active: 0.0794
2,C[C@@H]1CN([C@H](C)CO)C(=O)c2cccc(NS(=O)(=O)c3ccc(Cl)cc3)c2O[C@H]1CN(C)Cc1ccc(Oc2ccccc2)cc1,inactive: 1.04
3,Cc1noc(C)c1NC(=O)Nc1ccc2c(c1)C(=O)N([C@H](C)CO)C[C@@H](C)[C@@H](CN(C)S(=O)(=O)c1ccccc1)O2,inactive: 0.997
4,C[C@@H]1CN([C@@H](C)CO)C(=O)CCCn2nncc2CO[C@H]1CN(C)S(=O)(=O)c1ccc(Cl)cc1,inactive: 0.987
5,C[C@@H]1CN([C@H](C)CO)C(=O)c2cccc(NC(=O)C3CCOCC3)c2O[C@@H]1CN(C)Cc1ccncc1,inactive: 1
6,C[n+]1cccc(C(=O)[O-])c1,inactive: 0.934
7,Cc1noc(C)c1NC(=O)N(C)C[C@@H]1Oc2ccc(NC(=O)Nc3ccc(C(F)(F)F)cc3)cc2CC(=O)N([C@H](C)CO)C[C@@H]1C,inactive: 1
8,COCC(=O)N1C[C@H](C)[C@H](OC)CN(C)C(=O)c2ccc(NC(=O)Nc3ccccc3)cc2OC[C@H]1C,inactive: 0.847
9,C[C@@H]1CCCCO[C@H](CN(C)Cc2ccccc2)[C@@H](C)CN([C@H](C)CO)C(=O)c2cc(NC(=O)Nc3ccc(F)cc3)ccc2O1,inactive: 1.02
10,COc1cccc(S(=O)(=O)Nc2ccc3c(c2)[C@@H]2C[C@H](CC(=O)NCCc4ccccc4)O[C@@H](CO)[C@@H]2O3)c1,inactive: 0.977
11,NCC[C@@H]1CC[C@H](NC(=O)Nc2ccc(F)cc2)[C@H](CO)O1,inactive: 0.985
12,C[C@H](O)C#Cc1cnc2c(c1)C(=O)N([C@H](C)CO)C[C@H](C)[C@H](CN(C)C(=O)Nc1ccc(C(F)(F)F)cc1)O2,inactive: 0.982
13,C[C@H]1CN([C@@H](C)CO)C(=O)Cc2cc(NC(=O)CCN3CCOCC3)ccc2O[C@H]1CN(C)C(=O)Nc1ccccc1,inactive: 0.946
14,COc1ccc([Si](C)(C)[C@@H]2[C@@H](CCn3cc(CCO)nn3)O[C@]3(C(=O)N(C)c4ccccc43)[C@H]2C)cc1,inactive: 0.976
15,Cc1noc(C)c1S(=O)(=O)N(C)C[C@H]1OCCCC[C@H](C)Oc2ccc(NC(=O)Nc3ccccc3)cc2C(=O)N([C@@H](C)CO)C[C@@H]1C,inactive: 1.01
16,COCc1cc(C)nc2n[nH]c(N)c12,inactive: 0.975
17,C[C@@H]1CCCCO[C@H](CN(C)C(=O)Nc2ccc(F)cc2)[C@@H](C)CN([C@@H](C)CO)C(=O)c2cc(NC(=O)Nc3ccccc3)ccc2O1,inactive: 1.01
18,C[C@H]1CCCCO[C@@H](CN(C)C(=O)Nc2ccc(C(F)(F)F)cc2)[C@@H](C)CN([C@@H](C)CO)C(=O)c2cc(NC(=O)NC3CCCCC3)ccc2O1,inactive: 1.02
